Measured values: PubChem BioAssay AID1468 (National Center for Advancing Translational Sciences (NCATS), 2008)
Screen size: about 280,000 compounds; about 1,100 (0.39%) were called active. Inconclusive results, whose numbers are uncertain, are shown with a selection of clear calls. Calls come from the whole dose curve; as a rule, active = well fitted inhibition curve with a large enough effect; inconclusive = small, poorly fitted or top-dose-only effect, or effect the other way; inactive = flat fitted curve, though single readings scatter. No potency is given beside an inconclusive call; the fits are too rough.

target: Microtubule-associated protein tau (Homo sapiens) (UniProt P10636); test: qHTS for Inhibitors of Tau Fibril Formation, Fluorescence Polarization; settings: K18 P301L tau heparin fibrillization, Alexa594 FP, 6 h; series mostly up to 57.7 µM; activity, negative = inhibition: at the top concentration; note: nearly all actives have a fitted effect of over 55% in size
UniProt P10636, sequence (P10636 whole entry, looked up, the tested form may be a part): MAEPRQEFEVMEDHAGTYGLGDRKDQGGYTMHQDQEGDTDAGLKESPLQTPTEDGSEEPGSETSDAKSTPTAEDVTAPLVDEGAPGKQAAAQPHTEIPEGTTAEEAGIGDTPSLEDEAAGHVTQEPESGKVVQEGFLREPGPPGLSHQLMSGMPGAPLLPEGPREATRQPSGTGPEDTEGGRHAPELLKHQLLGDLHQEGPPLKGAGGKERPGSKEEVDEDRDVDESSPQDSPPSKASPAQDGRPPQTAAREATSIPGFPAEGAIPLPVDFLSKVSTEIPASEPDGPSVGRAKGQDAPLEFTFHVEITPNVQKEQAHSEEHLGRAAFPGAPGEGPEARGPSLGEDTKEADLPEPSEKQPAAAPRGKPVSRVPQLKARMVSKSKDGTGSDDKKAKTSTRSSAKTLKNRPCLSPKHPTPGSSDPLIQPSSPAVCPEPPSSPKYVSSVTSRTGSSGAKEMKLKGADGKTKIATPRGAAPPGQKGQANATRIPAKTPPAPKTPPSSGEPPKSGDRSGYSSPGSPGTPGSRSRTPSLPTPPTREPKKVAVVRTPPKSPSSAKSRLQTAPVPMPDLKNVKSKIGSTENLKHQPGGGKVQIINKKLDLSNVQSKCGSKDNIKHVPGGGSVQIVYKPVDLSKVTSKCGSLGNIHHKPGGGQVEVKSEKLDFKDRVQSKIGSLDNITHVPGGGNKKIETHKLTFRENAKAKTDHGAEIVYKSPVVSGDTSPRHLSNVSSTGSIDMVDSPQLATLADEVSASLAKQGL
In short: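 Human tau K18 […] P301L fragment, 15 uM unlabeled plus 0.24 uM Alexa 594-labeled tau (final), with compound and 20 uM heparin in 100 mM sodium acetate pH 7; 6 hr at 37 C, then Alexa 594 FP read.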
% is set by controls: 0 for no effect and ±100 for the full control effect; potency is the fitted concentration of half-maximal effect; tags give direction and shape of the fitted curve.

Structure (SMILES)	Potency	activity, negative = inhibition
CC(C)CCNc1ncnc2c1cnn2-c1cccc(Cl)c1	inconclusive [inhibitor, partial curve, poor fit]	
Cc1ccc(-n2ncc3c(=O)n(Cc4ccccc4C)cnc32)cc1C	inconclusive [inhibitor, single point]	
CCOC(=O)/C(C#N)=C1\C(=O)N(Cc2ccccc2)c2ccccc21	inconclusive [inhibitor, single point]	
CNc1nc(-c2c[nH]c3ccccc23)cs1	inconclusive [inhibitor, partial curve]	
COc1ccc(C(c2c(C)[nH]n(C(N)=S)c2=O)C(C#N)C#N)cc1 (stereo unspecified)	inconclusive [inhibitor, single point]	
Cc1c(CCC(=O)O)c(=O)oc2c(C)c(OCc3cc4c(cc3Cl)OCO4)ccc12	inconclusive [inhibitor, single point]	
CC(C)c1ccc(NC(=O)Cn2c(=O)n(Cc3nc(-c4ccccc4)no3)c(=O)c3cc4c(cc32)OCO4)cc1	inconclusive [inhibitor, partial curve]	
CS(=O)(=O)N(CC(=O)NCc1ccc2c(c1)OCO2)C1CCCCC1		inactive: -0.362%
COc1ccc2c(C#N)c3ccccn3c2c1	inconclusive [activator, partial curve]	
CO[C@@]1(NC(=O)Cc2cccs2)C(=O)N2C(C(=O)O)=C(COC(N)=O)CS[C@@H]21	inconclusive [inhibitor, single point]	
Cc1nnc(SCC(=O)Nc2ncc3c(n2)CC(C)(C)CC3=O)s1	inconclusive [inhibitor, single point]	
CC1CCN(S(=O)(=O)c2ccc3c(ccc(=O)n3CC(=O)Nc3cccc(F)c3)c2)CC1	inconclusive [inhibitor, partial curve]	
CN1CCc2c(sc3c2C(=O)NC(c2ccc(C(C)(C)C)cc2)N3)C1 (stereo unspecified)	inconclusive [inhibitor, single point]	
Cc1ccc(NC(=O)c2cc(S(=O)(=O)NCCc3ccc(Cl)cc3)ccc2F)cc1	inconclusive [inhibitor, partial curve]	
CCOC(=O)C1(Cc2ccc(OC)cc2)CCN(C(=O)Cc2cccnc2)CC1	inconclusive [inhibitor, single point]	
CCn1c(SCC(=O)Nc2ccc(C(C)=O)cc2)nc2nc3c(cc2c1=O)CCCC3	inconclusive [inhibitor, single point]	
COc1ccc(NC(C)C(=O)Nc2ccc(C(C)(C)C)cc2)cc1Cl (stereo unspecified)	inconclusive [activator, partial curve, poor fit]	
Cc1cc(NC(=O)CSc2n[nH]c(-c3cccs3)n2)no1		inactive: -3.65%
COc1ccccc1OCC(=O)NNc1c2ccccc2nc2ccccc12	inconclusive [activator, full curve, poor fit]	
COc1ccc(OCC(O)Cn2c(NCCO)nc3c2c(=O)n(C)c(=O)n3C)cc1 (stereo unspecified)		inactive: 2.43%
Cc1ccc(NC(=O)CSc2cn(CC(=O)N3CCCC3)c3ccccc23)cc1Cl	inconclusive [inhibitor, single point]	
O=C(CSc1nc2c([nH]c3ccccc32)c(=O)n1-c1ccc(Cl)cc1)c1ccccc1	inconclusive [inhibitor, partial curve, poor fit]	

Structure (SMILES)	Potency	activity, negative = inhibition
Cc1[nH]n(-c2ccc(Cl)cc2)c(=O)c1C(=O)c1ccccc1	inconclusive [inhibitor, partial curve, poor fit]	
O=C(CSC1=Nc2ccccc2N=C(c2ccc(F)cc2)C1)Nc1ccccc1	inconclusive [inhibitor, single point]	
CCOc1ccc(NC(=O)c2c(NC(=O)Cc3ccccc3)sc3c2CCCCC3)cc1	inconclusive [inhibitor, single point]	
BrC(/C=N/Nc1nc(N2CCOCC2)nc(N2CCOCC2)n1)=C/c1ccccc1		inactive: -0.985%
Cc1ccc(C)c(NC(=S)NC(NC(=O)/C=C/c2ccccc2)C(Cl)(Cl)Cl)c1 (stereo unspecified)	inconclusive [inhibitor, partial curve]	
Cc1ccc(Cl)cc1-n1ncc2c(N3CCN(Cc4ccccc4)CC3)ncnc21	inconclusive [inhibitor, single point]	
c1cncc(-c2nn3cnnc3s2)c1		inactive: 0.315%
COc1ccc(Cl)cc1NC(=S)NCCC(c1ccccc1)c1ccccc1	inconclusive [inhibitor, partial curve]	
O=C1N(Cc2cccc(Cl)c2)C[C@@H]2C[C@@H](c3cccc4ncccc34)N3CCC[C@@]123		inactive: -8.08%
CCCCN(CCCC)c1nc2ccccc2nc1NS(=O)(=O)c1ccc(NC(C)=O)cc1	inconclusive [inhibitor, partial curve, poor fit]	
On1c2c(c3c4nonc4ccc31)CCCC2	inconclusive [inhibitor, partial curve]	
Nc1[nH]nc2c1NN(c1ccc(Cl)cc1Cl)N2	inconclusive [activator, partial curve, poor fit]	
COc1cc(S(=O)(=O)NCCc2c(C)[nH]c3ccccc23)c(C)cc1C	inconclusive [activator, partial curve]	
c1ccc(CSc2ccc3nnc(-c4ccccn4)n3n2)cc1		inactive: -1.97%
Fc1cccc(-c2nnn3c2nc(NC2CCCCC2)c2ccccc23)c1	inconclusive [inhibitor, single point]	
COc1cccc(NC(=O)/C(C#N)=C/c2c(C)n(Cc3ccc(Cl)cc3)c3ccccc23)c1	inconclusive [inhibitor, partial curve]	
CC(C)(C)CC(=O)NC(=S)NCCc1ccccc1		inactive: -7.09%
CC(C)c1nc(-c2ccccc2)c(-c2ccccc2)[nH]1		inactive: 4.77%
O=C(Nc1ccc(F)cc1)Nc1cc(OCC(F)(F)F)cc(OCC(F)(F)F)c1	active: 8.91 µM	
O=C(O)c1cccc(N/N=C/C2=C(Cl)c3cc(Cl)ccc3SC2)c1	inconclusive [activator, partial curve]	
O=C(NCc1ccco1)c1ccc2c(c1)N(Cc1ccc(Cl)cc1)C(=O)c1ccccc1S2	inconclusive [inhibitor, single point]	
CN(C)CCNc1oc(-c2ccc(COc3ccc(Cl)cc3)o2)nc1C#N	inconclusive [activator, single point]	

Structure (SMILES)	Potency	activity, negative = inhibition
Cc1onc(-c2ccccc2Cl)c1C(=O)Nc1cccnc1		inactive: 3.1%
CCN(CC)S(=O)(=O)c1ccc(NC(=O)c2ccc(Sc3nncn3C)c([N+](=O)[O-])c2)cc1	inconclusive [activator, single point]	
O=C(Nc1ccc(Br)cc1)C1CCCN1S(=O)(=O)c1ccc(F)cc1 (stereo unspecified)		inactive: -4.44%
Cc1ccc(NC(=O)CN2C(=O)N/C(=C/c3cc(C)n(-c4cccc(C(=O)O)c4)c3C)C2=O)cc1		inactive: -3.12%
CCOc1ccc(Cn2c3ccc(OC)cc3c3nc4ccccc4nc32)cc1OC	inconclusive [inhibitor, single point]	
CCOc1ccc(C(=O)Nc2cnn(Cc3ccc(Cl)c(Cl)c3)c2)cc1	inconclusive [inhibitor, single point]	
CSc1ccc(/C=N/NC(=O)CNc2cccc3ccccc23)cc1		inactive: 4.28%
Cc1ccc(CSc2nc3ccccc3c(=O)n2Cc2ccco2)cc1		inactive: -11.9%
CCOc1ccc(/C=C/[N+](=O)[O-])c2ccccc12	inconclusive [activator, full curve, poor fit]	
Cc1cc(C)cc(N2C(=O)N(Cc3cccc(F)c3)c3ccccc3S2(=O)=O)c1	inconclusive [inhibitor, partial curve]	
Cc1nc2scc(C)n2c(=O)c1S(=O)(=O)NCCc1ccccc1		inactive: -10.2%
CCCCN(CC)C(=O)c1nn(C)c2c1CSc1ccccc1-2	inconclusive [activator, single point]	
Cc1ccc(COc2ccccc2-c2cc(C(=O)N/N=C/c3cccnc3)[nH]n2)cc1	inconclusive [inhibitor, partial curve]	
O=C1CC(Sc2nnnn2C2CCCCC2)C(=O)N1c1ccccc1 (stereo unspecified)		inactive: -6.7%
Nc1cccc2c1C(=O)N(C(=O)/C=C/c1cccc(Br)c1)C2=O	inconclusive [inhibitor, partial curve]	
CC(=O)c1cccc(NC(=O)CSc2nc(=O)n(Cc3ccco3)c3c2CCC3)c1	inconclusive [inhibitor, single point]	
CC(C)NC(=S)N/N=C/c1sc(N2CCCCC2)nc1-c1cccs1	inconclusive [activator, full curve]	
CC(C)C1NC(C(=O)O)Cc2c1[nH]c1ccccc21 (stereo unspecified)	inconclusive [inhibitor, single point]	
COc1ccc(Cl)cc1NC(=O)C(C)Sc1nc2c(c(=O)[nH]1)CCCC2 (stereo unspecified)		inactive: -9.47%
CCOc1ccc(C(=O)c2ccc(OC)c(O)c2O)cc1	inconclusive [inhibitor, single point]	
Cc1ccc(NC(=O)c2ccccc2OCC(=O)c2ccccc2)cc1	inconclusive [inhibitor, partial curve]	
Oc1ccc(-c2csc(-c3c[nH]c4ccccc34)n2)c(O)c1	inconclusive [activator, partial curve, poor fit]	
